Assay results as given in the supplement of paper PMC12217912.
This is one part of the list. The full chains were built here from the parent and the listed change. Values near 0.05 are background.

B1: TEV protease; numbered along this chain (parent)
chain: MGESLFKGPRDYNPISSSICHLTNESDGHTTSLYGIGFGPFIITNKHLFRRNNGTLVVQSLHGVFKVKDTTTLQQHLVDGRDMIIIRMPKDFPPFPQKLKFREPQREERICLVTTNFQTKSMSSMVSDTSCTFPSGDGIFWKHWIQTKDGQCGSPLVSTRDGFIVGIHSASNFTNTNNYFTSVPKNFMELLTNQEAQQWVSGWRLNADSVLWGGHKVFMVKPEEPFQPVKEATQL

Variants of: B1
Assay: raw area under fraction-flipped curve 0-4 h after induction (AUC4h, not background-subtracted), DNA-recorder readout of cleavage of the substrate (dimensionless); higher = more cleavage of the substrate by the protease variant
Settings: temperature: 34 °C; time window: 0-4 h after rhamnose induction
Description: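 In vivo DNA recorder in E. coli TOP10(DE3) ΔrhaA at 34 °C. Each TEVp single-site mutant (parent TEVp 0) is paired with a single-site variant of the 7-mer TEVs (canonical ENLYFQ|S). The substrate sits between flexible linkers in a Bxb1-sfGFP-TEVs-SsrA fusion, so cleavage stabilises Bxb1 and speeds flipping of a recombination array, read by NGS. The value is the raw area under the fraction-flipped curve over 0-4 h after rhamnose induction (AUC4h), with ≥20 reads per time point. It is not background-subtracted; inactive controls average about 0.047.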
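Further: Bxb1 expression induced with 0.2% (w/v) L-rhamnose at OD600 near 0.5, cultures sampled hourly, flipped fraction per protease–substrate barcode pair counted by paired-end Illumina sequencing.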

Variant | area with substrate EALYFQS | area with substrate EELYFQS | area with substrate EHLYFQS | area with substrate EMLYFQS | area with substrate EPLYFQS | area with substrate EQLYFQS | area with substrate ESLYFQS | area with substrate EVLYFQS | area with substrate ECLYFQS | area with substrate ELLYFQS | area with substrate EWLYFQS | area with substrate EKLYFQS | area with substrate EYLYFQS | area with substrate EDLYFQS | area with substrate EFLYFQS | area with substrate EILYFQS | area with substrate ERLYFQS | area with substrate ETLYFQS | area with substrate EGLYFQS
T129R | 0.102 | 0.114 | 0.0825 | 0.0728 | 0.106 | 0.132 | 0.0986 | 0.105 | – | – | – | – | – | – | – | – | – | – | –
C131G | 0.0989 | – | – | – | – | 0.124 | 0.11 | – | 0.0897 | 0.0718 | 0.076 | – | – | – | – | – | – | – | –
P134A | 0.131 | 0.13 | – | – | – | 0.135 | 0.0976 | 0.114 | – | – | – | 0.0941 | 0.105 | – | – | – | – | – | –
P134F | 0.053 | – | 0.0769 | – | 0.0719 | 0.0727 | 0.0689 | – | 0.0517 | 0.0701 | – | – | – | 0.0799 | 0.058 | 0.0501 | 0.0437 | – | –
P134M | 0.118 | 0.0763 | – | 0.118 | 0.118 | – | – | – | – | – | – | 0.0961 | – | – | – | 0.073 | – | 0.0935 | –
S135E | 0.11 | 0.0597 | – | 0.0704 | 0.092 | 0.0821 | 0.0862 | 0.0793 | 0.085 | – | – | 0.0833 | – | 0.106 | – | – | 0.0841 | – | 0.0718
S135M | 0.0582 | – | 0.0714 | 0.0924 | 0.101 | – | 0.0629 | 0.0516 | 0.0626 | – | – | – | – | – | – | 0.0611 | 0.0656 | – | 0.0557
S135T | 0.155 | – | 0.112 | 0.102 | 0.1 | 0.117 | 0.0743 | 0.0901 | – | 0.0596 | – | 0.0894 | 0.0907 | 0.116 | 0.0906 | 0.0713 | 0.0631 | 0.049 | 0.0585
G136I | 0.133 | – | – | – | 0.137 | – | 0.109 | 0.209 | – | 0.0879 | – | – | – | – | 0.0837 | 0.105 | – | – | 0.135
D137G | 0.113 | 0.108 | 0.073 | 0.119 | 0.108 | 0.0914 | 0.0903 | 0.113 | 0.0868 | 0.0753 | 0.0834 | – | 0.0927 | 0.106 | 0.113 | 0.0715 | – | 0.127 | 0.101
D137W | 0.0957 | 0.121 | – | – | 0.0928 | 0.0679 | 0.157 | 0.0706 | 0.107 | – | – | – | – | – | 0.0983 | – | – | – | –
G138I | 0.117 | – | 0.102 | 0.149 | 0.0986 | – | 0.0901 | 0.0805 | 0.0664 | 0.07 | – | – | 0.0762 | – | – | – | – | 0.048 | –
W141K | 0.0548 | – | 0.055 | – | – | 0.0403 | 0.0526 | 0.0559 | 0.0608 | – | – | – | – | 0.063 | – | 0.0315 | 0.0578 | – | 0.0588
W141L | 0.0641 | – | 0.0569 | 0.0579 | 0.0562 | 0.047 | 0.0639 | – | – | – | – | – | – | – | – | 0.0521 | 0.0857 | – | –
H143E | 0.0464 | 0.0454 | 0.0724 | 0.0535 | 0.0483 | 0.0489 | 0.0577 | 0.0549 | 0.049 | – | 0.054 | 0.0598 | 0.0457 | – | – | 0.0547 | 0.0589 | – | –
H143S | 0.069 | 0.0752 | 0.0865 | 0.118 | 0.104 | 0.0898 | 0.114 | 0.0791 | 0.0832 | 0.0801 | 0.0816 | 0.0645 | – | 0.11 | 0.0988 | 0.103 | 0.0831 | – | 0.0545
